PMC10194883 (PLOS ONE, 2023)

Molecular target: ACE2 binding to wild type of SARS-CoV-2 RBD (UniProt P0DTC2+Q9BYF1)

Compound: O=C(O)C(=O)O [OA, Oxalic acid]
- inhibitory effect on ACE2 binding to wild type SARS-CoV-2 RBD: no inhibitory effect
